From patent publication US9662390B2, “Use of opioid antagonists to attenuate endothelial cell proliferation and migration” (THE UNIVERSITY OF CHICAGO, priority 2005, dated 2017)
Where two headings read alike, the source gives them in different places.

Test system: Human Microvascular Endothelial Cells (HMVEC)
Assay type: cell-based
Details: for effect on endothelial cell migration: substance alone, 0.001 to 10.0 μM, 4 hours, cells migrated per 10 high power fields; for effect on DAMGO-induced endothelial cell migration: DAMGO 1 μM; for effect on morphine-induced endothelial cell migration: morphine constant at 0.1 μM, antagonist 0.001 to 10.0 μM

Row | Structure (SMILES) | effect on endothelial cell migration | effect on DAMGO-induced endothelial cell migration | effect on DAMGO-induced endothelial cell migration (listed as methylnaltrexone) | MNTX concentration that significantly blocks morphine-induced migration (morphine 10^−7M) | effect on morphine-induced endothelial cell migration | effect on morphine-induced endothelial cell migration (listed as methylnaltrexone)
1 | CN1CC[C@]23c4c5ccc(O[C@@H]6O[C@H](C(=O)O)[C@@H](O)[C@H](O)[C@H]6O)c4O[C@H]2[C@@H](O)C=C[C@H]3[C@H]1C5 [M3G, morphine-3-glucuronide] | exerts no angiogenic activity | – | – | – | – | –
2 | C[N+]1(CC2CC2)CCC23c4c5ccc(O)c4OC2C(=O)CCC3(O)C1C5 (stereo not shown) [MNTX, N-methylnaltrexone] | no effect on endothelial cell migration | blocked | decreased migration in a concentration-dependent manner | 10^−7 M | attenuated | decreased migration in a concentration-dependent manner
